Data published in paper PMC4336329 (PLoS ONE, 2015).
Among all 310,000 compounds or so, about 2,200 (0.71%) showed an effect of 50% or more. The effect is printed as a negative number. The list shows a part of the results.

biological target: human ether-à-go-go-related gene (hERG) potassium channel (human, UniProt Q12809); test: primary screen, population patch clamp on CHO cells stably expressing hERG
Sequence (Q12809 whole entry, looked up): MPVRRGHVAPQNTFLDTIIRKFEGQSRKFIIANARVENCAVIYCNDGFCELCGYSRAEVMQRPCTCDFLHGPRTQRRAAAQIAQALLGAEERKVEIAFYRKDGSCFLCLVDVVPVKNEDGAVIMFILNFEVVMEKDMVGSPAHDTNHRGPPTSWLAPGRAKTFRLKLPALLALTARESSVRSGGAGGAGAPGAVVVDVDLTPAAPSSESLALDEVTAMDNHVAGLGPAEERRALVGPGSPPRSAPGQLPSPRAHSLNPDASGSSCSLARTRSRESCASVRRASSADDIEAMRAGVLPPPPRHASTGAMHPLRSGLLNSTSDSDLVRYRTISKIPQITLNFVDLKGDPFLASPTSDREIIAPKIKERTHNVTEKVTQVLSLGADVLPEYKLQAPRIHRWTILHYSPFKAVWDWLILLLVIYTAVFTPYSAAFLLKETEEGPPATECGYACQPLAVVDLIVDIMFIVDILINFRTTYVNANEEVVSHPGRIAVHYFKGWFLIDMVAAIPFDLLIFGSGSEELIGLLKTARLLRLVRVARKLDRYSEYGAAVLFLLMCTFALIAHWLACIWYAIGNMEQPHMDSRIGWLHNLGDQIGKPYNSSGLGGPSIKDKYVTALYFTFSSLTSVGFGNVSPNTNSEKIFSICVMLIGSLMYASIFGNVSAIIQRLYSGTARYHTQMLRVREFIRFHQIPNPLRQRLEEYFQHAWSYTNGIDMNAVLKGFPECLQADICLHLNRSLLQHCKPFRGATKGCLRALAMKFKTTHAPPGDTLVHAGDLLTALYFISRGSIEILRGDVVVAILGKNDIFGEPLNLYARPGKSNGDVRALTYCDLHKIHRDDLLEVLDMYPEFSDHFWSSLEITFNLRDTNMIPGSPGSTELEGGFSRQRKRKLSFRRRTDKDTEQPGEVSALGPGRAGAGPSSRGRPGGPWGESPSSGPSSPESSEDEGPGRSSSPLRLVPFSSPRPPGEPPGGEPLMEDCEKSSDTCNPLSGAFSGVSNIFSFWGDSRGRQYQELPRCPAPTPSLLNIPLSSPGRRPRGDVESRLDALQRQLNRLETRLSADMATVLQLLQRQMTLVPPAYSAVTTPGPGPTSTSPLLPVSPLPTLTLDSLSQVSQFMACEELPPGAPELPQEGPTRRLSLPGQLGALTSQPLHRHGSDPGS

| Structure (SMILES) | hERG current change (%, negative = inhibition) at 1uM [%] |
| --- | --- |
| COc1ccc([N+](=O)[O-])cc1NC(=O)C(C)N(C)Cc1cccc(OC)c1OC (stereo not shown) | 2.1 |
| CCOC(=O)N1CCN(C(=O)CN2C(=O)COc3ccc(C)cc32)CC1 | 7.11 |
| O=C(CSc1nnc(NC(=O)C2CC2)s1)NCc1ccccc1 | 7.37 |
| CN(CC(=O)NC1CCCCCCC1)S(=O)(=O)c1cnc[nH]1 | 11 |
| CCCCNC(=O)CNC(=S)N(Cc1ccccc1F)C1CCCCC1 | 10.9 |
| COc1ccc([C@H]2CC(=O)C=C(c3ccc(F)cc3OCc3ccccc3)C2)cc1OC | 10.3 |
| CN(C)S(=O)(=O)c1ccc(N2CCCC2)c(C(=O)Nc2ccccc2)c1 | 3.62 |
| Cc1ccc(NC(=O)CN(C)C(=O)CCC(=O)N2CCOCC2)cc1 | 9.66 |
| Cc1ccc(N2CCN(S(=O)(=O)N(C)C)CC2)cc1Cl | 8.63 |
| O=C(CNc1cccc(S(=O)(=O)N2CCOCC2)c1)N1CCc2ccccc21 | 12.5 |
| Cc1ccc(S(=O)(=O)N2CCC(C(=O)OCCOc3ccccc3)CC2)cc1C | 1.87 |
| CCN1C(=O)N[C@@H](c2ccccc2)[C@@H](C(=O)OC)[C@H]1C | 10.6 |
| Cc1nc2c(Br)c3nc(C(F)(F)F)[nH]c3c(Br)c2[nH]1 | -0.126 |
| NC(=O)NC(=O)COC(=O)c1ccc(OC(F)F)cc1 | 11.9 |
| CS(=O)(=O)N(CC(=O)N1CCCCC1)c1ccc2c(c1)OCO2 | 11.6 |
| CC1(C)S[C@@H]2C(C(=O)OCc3ccccc3)NC(=O)N2C1C(=O)OCc1ccccc1 (stereo partly shown) | 9.86 |
| O=C(NC(=O)c1ccc(C(F)(F)F)cc1)Nc1ccc(-c2cnco2)cc1 | 14.1 |
| O=C(NCc1cccs1)C1CCCN(S(=O)(=O)c2cccs2)C1 (stereo not shown) | 6.35 |
| O=C(CSc1nnc(-c2cccnc2)n1Cc1ccco1)c1ccc(Cl)c(Cl)c1 | -12.2 |
| COCc1cc(=O)n2[nH]c(-c3cccc(Br)c3)cc2n1 | -10.1 |
| c1ccc2c(c1)OCC(CNCC1COc3ccccc3O1)O2 (stereo not shown) | 12 |
| CN1CCSc2ccc(C(=O)NCc3ccccc3F)cc21 | 5.81 |

| Structure (SMILES) | hERG current change (%, negative = inhibition) at 1uM [%] |
| --- | --- |
| Cc1cccc(NC(=O)Cn2cnc3c(oc4nc5c(cc43)COC(C)(C)C5)c2=O)c1 | -14.6 |
| Cc1c(NC(=O)NC(C)N2C(=O)C3C4C=CC(C4)C3C2=O)c(=O)n(-c2ccccc2)n1C (stereo not shown) | 12.8 |
| CCOc1ccc(S(=O)(=O)n2ccc(C)n2)c2ccccc12 | 9.46 |
| COC(=O)C1(C(C[N+](=O)[O-])c2ccco2)C(=O)NCC1c1ccccc1 (stereo not shown) | 13.2 |
| CC(C)C[C@H](NC(=O)OC(C)(C)C)C(=O)N1CCC(C(=O)N[C@@H](Cc2ccccc2)C(=O)O)CC1 | 11.5 |
| O=C(O)Cn1c(=O)c(-c2ccccc2)nc2ccccc21 | 28.8 |
| CN=C(NC#N)SCC(=O)c1ccc(Cl)cc1Cl | 7.76 |
| CCOC(=O)N1CCC(=NNc2ccc(S(=O)(=O)N3CCOCC3)cc2[N+](=O)[O-])CC1 | 0.353 |
| CCS(=O)(=O)N1CCC(NC(=O)c2cc(OC)cc(OC)c2)CC1 | 13 |
| COCCNC(=O)C(C(=O)c1ccc(F)cc1)n1cc(C)ccc1=O (stereo not shown) | 10.9 |
| OCC[C@H]1C[C@@H](O)[C@H](O)[C@@]2(CCCCO2)O1 | -0.629 |
| O=C(NCCc1ccccc1)N1CCCC(CNS(=O)(=O)Cc2ccccc2)C1 (stereo not shown) | 8.57 |
| CC1CCCCN1S(=O)(=O)c1ccc2[nH]c(=O)cc(C(=O)NCCCN3CCCCCC3)c2c1 (stereo not shown) | 18 |
| COc1ccc(NC(=O)c2ccc(-c3ccc(-c4noc(C)n4)cc3C)cc2)cc1N1CCN(C)CC1.Cl | -5.02 |
| Cc1cc(C)c(S(=O)(=O)NCCc2ccccc2)c(C)c1 | 5.12 |
| Cc1ccc(NC(=O)[C@H](NC(=O)[C@@H]2Cc3ccccc3CN2)c2ccccc2)cc1C | 7.14 |
| O=C(CSc1nc(Nc2ccccc2)nc(N2CCOCC2)n1)NC1CCCCC1 | 8.9 |
| COc1cccc(CNC(=O)CSCC(=O)Nc2ccc(C)cc2)c1 | 5.58 |
| CCCN(c1ccccc1C(=O)O)S(=O)(=O)c1ccc2c(c1)n(C)c(=O)n2C | 13.3 |
| O=C(CNC(=O)c1ccccc1Br)N/N=C/c1ccccc1O | 14.3 |
| O=C(Nc1cccc(F)c1)N1CC=C(n2c(=O)[nH]c3ccccc32)CC1 | 11.4 |
| Cl.FC(F)(F)c1ccc2c(c1)N(CCCN1CCN(CCCl)CC1)c1ccccc1S2 | -0.159 |

| Structure (SMILES) | hERG current change (%, negative = inhibition) at 1uM [%] |
| --- | --- |
| CCN1C(=O)C2(C(C#N)=C(N)Oc3n[nH]c(C(C)C)c32)c2ccccc21 (stereo not shown) | 9.08 |
| Oc1ccc(-c2n[nH]c(=S)n2-c2ccc3c(c2)OCCO3)cc1 | 11.7 |
| COc1ccc2c(c1)c(C(=O)CN1CCc3ccccc3C1)c(C)n2C | 8.04 |
| CN(C)S(=O)(=O)Nc1cc(F)cc(F)c1 | 13.9 |
| COc1ccccc1OCc1ccc(C(=O)NCC(C)C)o1 | -2.81 |
| COc1ccc(/C=C/C(=O)c2ccc(O)cc2)cc1 | 12.3 |
| COc1ccc(NC(=O)CN2C(=O)/C(=C3\SC(=S)N(C4CCS(=O)(=O)C4)C3=O)c3ccccc32)cc1 (stereo not shown) | 11.1 |
| O=C(CSc1ccc(-c2ccccc2)nn1)N1CCN(c2ccccc2)CC1 | 12.7 |
| Cc1cc(-n2ccnc2)n2c(nc3ccccc32)c1C#N | 15.3 |
| CCN(Cc1ccc2c(c1)OCCO2)C(=O)CSc1nc(C)nc2sc(C)c(C)c12 | 0.539 |
| O=C(NC1CCCCC1)C(c1ccc2ncccc2c1)N(Cc1ccc2c(c1)OCO2)C(=O)c1cccs1 (stereo not shown) | 2.23 |
| CC(C)(C)c1ccc(C(=O)NCCC(=O)NCc2cccs2)cc1 | 7.44 |
| COc1ccc(C(CNC(=O)C(C)c2ccc3cc(OC)ccc3c2)N(C)C)cc1 (stereo not shown) | 12.7 |
| CCCOC(=O)C1=C(C)NC2=C(C(=O)CCC2)C1c1cccc(OC)c1OC (stereo not shown) | -3.44 |
| CC(C)CN(C(=O)c1ccco1)C1CCS(=O)(=O)C1 (stereo not shown) | 6.19 |
| Cc1cc(OCC(=O)NNC(=O)CCc2ccccc2)ccc1Br | 15.6 |
| O=C(Cc1ccccc1)Oc1ccc([N+](=O)[O-])cc1 | 16.7 |
| CCOC(=O)C1=NNC(C(=O)c2ccc(C)cc2)C1c1ccc(OC)cc1 (stereo not shown) | -1.62 |
| CCC(C)[C@H](NC(=O)NCc1ccccc1)C(=O)O (stereo partly shown) | 8.86 |
| C=CCNC(=O)CC12CC3CC(C1)CC(CC(=O)NCC=C)(C3)C2 | 16.1 |
| O=S(=O)(c1cccc(-n2cnnn2)c1)N1CCOCC1 | 6.79 |
| O=C(Nc1ccccc1)c1ccc2c(c1)CCN2S(=O)(=O)c1ccccc1 | 11.5 |

| Structure (SMILES) | hERG current change (%, negative = inhibition) at 1uM [%] |
| --- | --- |
| Fc1ccc(NC(=S)NCCN2CCOCC2)c(F)c1F | 12.2 |
| COC(=O)c1cccc(C23CC4(C2)[C@H](CN(Cc2cccnc2)[C@@H]4c2ccccc2)C3c2ccc(Cl)nc2)c1 (stereo partly shown) | 6.68 |
| O=C(NCCCc1ccccc1)C1CCC(=O)N(CCc2ccc(Cl)cc2)C1 (stereo not shown) | -62.2 |
| COc1ccc(CNC(=O)c2cccc(N(C)C)c2)cc1 | 8.92 |
| Cc1ccc(CNC(=O)C2CCN(S(=O)(=O)c3cccs3)CC2)o1 | -10.1 |
| Cc1ccc(C(=O)N2CCN(c3ccc(NC(=O)c4cccnc4)cc3)CC2)cc1 | -11.3 |
| Cc1cc(C)n2c(Nc3ccc4c(c3)OCCO4)c(-c3ccc(C)o3)nc2n1 | 5.63 |
| CCCC1=NN(c2ccc([N+](=O)[O-])cc2)C(=O)/C1=C/N(C)C | 6.46 |
| Cc1cc(C)cc(NC(=O)CSc2nnc(-c3ccccc3C)o2)c1 | -5.13 |
| CC1=NN2C(=N)/C(=C\c3cc(C)n(-c4ccc(C)cc4)c3C)C(=O)N=C2S1 | 7.02 |
| CCCS(=O)(=O)c1nc(S(=O)(=O)c2ccc(C)cc2)c(N2CCCC2)s1 | 14.5 |
| COc1ccc(C23NCCN2C(=O)c2ccccc23)cc1 (stereo not shown) | 17.1 |
| COc1ccc(C(=O)Nc2ncccc2C)cc1S(=O)(=O)N1CCCc2ccccc21 | 8.54 |
| C#CCSc1nnc(-c2ccccc2)c(=O)[nH]1 | 8.97 |
| CCOC(=O)CSc1nc2ccc(N3CCOCC3)cc2c(=O)n1Cc1ccc2c(c1)OCO2 | 6.74 |
| COC(=O)c1c(NC(=O)CSc2nc(-c3ccco3)cc(C(F)(F)F)n2)sc2c1CCCC2 | 16.8 |
| COC(=O)[C@@]1(Cc2ccc(F)cc2)[C@H]2c3cc(C(=O)N4CCCC4)n(CCc4c[nH]c5ccc(OC)cc45)c3C[C@H]2CN1C(=O)c1ccccc1 | 12.8 |
| COc1cccc(CC2(CO)CCCN(C/C=C/c3ccccc3OC)C2)c1 (stereo not shown) | -32.8 |
| COc1cc2nc(C3CCC3)n(N)c(=O)c2cc1OC | 11.3 |
